Consider one molecule from patent US20220251191A1 (ARCH ONCOLOGY, published 2022).

Assay [1] concerns the target T1, recombinant Fc tagged IL-2 Receptor-beta (IL-2Rβ) (Sino Biologicals #10696-H02H) (UniProt P14784 27-239).
T1 construct: Bought reagent; also called IL-15Rβ; β receptor; not shown: Fc domain tag (detected with α-human IgG)
T1 sequence (looked up): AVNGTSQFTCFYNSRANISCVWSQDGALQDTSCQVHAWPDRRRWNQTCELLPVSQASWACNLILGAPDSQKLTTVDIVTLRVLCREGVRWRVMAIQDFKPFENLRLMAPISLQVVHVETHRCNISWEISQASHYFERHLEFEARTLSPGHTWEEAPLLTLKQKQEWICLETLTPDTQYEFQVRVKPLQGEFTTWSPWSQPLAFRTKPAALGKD
Nature of the assay: TR-FRET, Exp 1. The protocol: (§1) Continuously over the next 30 minutes, fluorescence for donor signal (337 nm excitation/620 nm emission) and acceptor signal (337 nm excitation/655 nm emission) are read. The TR-FRET binding signal is determined by taking the ratio of acceptor signal over donor signal and multiplying by 10,000. […] Equilibrium values are then fit to a standard equilibrium equation assuming single site binding using the graphing program GraFit (Erithacus Software).
A general note: In TR-FRET formats the signal depends on donor and acceptor labels being close together.

Assay [2] concerns the target T2, IL-15Rβ with 20 nM receptor γ (UniProt P14784 27-239; P31785 23-262).
T2 construct: Mixture of IL-2Rβ-Fc and receptor γ in the TR-FRET assay; also called IL-15Rβ with the γ subunit; IL-15 with γ; not shown: Fc domain tag
T2 sequence (looked up) 1: T1 sequence (looked up)
T2 sequence (looked up) 2: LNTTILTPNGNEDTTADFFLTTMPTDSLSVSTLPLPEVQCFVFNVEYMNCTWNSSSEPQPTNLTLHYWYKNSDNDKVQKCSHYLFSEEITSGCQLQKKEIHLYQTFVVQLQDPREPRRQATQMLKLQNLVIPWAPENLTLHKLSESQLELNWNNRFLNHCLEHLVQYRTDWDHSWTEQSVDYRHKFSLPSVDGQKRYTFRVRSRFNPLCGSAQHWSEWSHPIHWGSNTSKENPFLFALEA
Briefly: TR-FRET, with 20 nM receptor γ against without (FIG. 12).

In assay [3] the target is T1, recombinant Fc tagged IL-2 …. Nature of the assay: TR-FRET, Exp 2. The protocol: as §1
Assay [4] has the same target. Briefly: TR-FRET, without receptor γ (FIG. 12). The method, then: as §1
Assay [5] has the same target. Nature of the assay: TR-FRET, previous analyses.
Assay [6] has the same target. Briefly: TR-FRET ligand-receptor binding assay, equilibrium fit. The protocol:
as §1

B1: IL-15 WT (in-house His6) (ligand)
chain: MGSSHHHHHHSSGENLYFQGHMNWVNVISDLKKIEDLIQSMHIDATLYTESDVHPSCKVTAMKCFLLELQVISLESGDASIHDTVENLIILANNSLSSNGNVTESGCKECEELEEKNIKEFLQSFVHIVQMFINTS
notes: also called in-house IL-15; in-house prepared rIL-15
With B1, the dissociation constant Kd in assay [1] was determined as 0.95 nM; in assay [3], 0.88 nM; in assay [4], 28.5 nM; in assay [5], 10 nM; in assay [6] it was 0.95 nM. The “fold increase in apparent affinity with receptor γ against without” value in assay [2] is 8 fold.

Usually Kd stands for the constant that tells how readily two partners part at equilibrium.
